Data on 81 compounds can be found in ChEMBL document CHEMBL1201862, “PubChem BioAssay data set” (2004).

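Where inhibition never reached the appropriate level, the endpoint shown equals the highest concentration tested. Otherwise, values were interpolated linearly from a five-concentration, 48-hour dose response in 96-well plates. At the GI50, growth is halved.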 Activity calls are given as the source filed them. No stated cut-off is given here; in the data, active = GI50 up to about 1.1 µM and inactive = higher.

The test deals with NCI-H322M. Kind of test: NCI tumour cell line growth inhibition, 48 h.
As to `CNC(=O)OCc1nc(SSc2nc(COC(=O)NC)c(COC(=O)NC)n2C)n(C)c1COC(=O)NC`, the GI50 was inactive: > 100 µM. As to `O=C(CCc1ccccc1)NCCc1ccc(O)c(O)c1`, the GI50 is inactive: > 76.2 µM. Regarding `CN(C)CCCc1c2ccccc2nc2ccc(Cl)cc12`, the GI50 was inactive: 11.7 µM. As for `CC(=O)Nc1ccc(Cc2ccc3nc(O)cc(C)c3c2)cc1`, the GI50 is inactive: 48 µM. Next, `CC(=O)Oc1cc2c(cc1OCC(F)(F)F)[C@H]1CC[C@]3(C)[C@@H](OC(C)=O)CC[C@H]3[C@@H]1CC2=O`: inactive: 16.7 µM; `COc1cc(C2c3cc4c(cc3OC(NNC(N)=O)C2C)OCO4)cc(OC)c1OC` (stereo unspecified): active: 0.139 µM. Take `COc1ccc(C2C(C)C(=O)C(C)C(c3ccc(OC)cc3)N2N=O)cc1` (stereo unspecified): the GI50 is inactive: 684 µM. As for `COC(=O)c1sc(=O)sc1SCc1cccc(CSc2sc(=O)sc2C(=O)OC)c1`, the GI50 was inactive: > 100 µM. Next, `Cc1cccc(C)c1NC(=O)CCCC(=O)C(C#N)c1ccccc1` (stereo unspecified): inactive: > 10 µM; `C[C@H](O)CCC(=O)c1ccoc1`: inactive: > 100 µM.

As to `O=C(CC1(O)C(=O)Nc2c(Cl)ccc(Cl)c21)c1ccc(Cl)cc1Cl` (stereo unspecified), the GI50 is inactive: 26.7 µM.

Consider `Cc1cc(=O)oc2cc(OC(=O)N(C)C)c(Cl)cc12`, for which the GI50 is inactive: > 100 µM.

`CNC(=O)Nn1c(SC)nc2ccccc21`: the GI50 is inactive: > 100 µM.

As for `COc1ccc(Cn2c3c(cc(OS(=O)(=O)C(F)(F)F)c2=O)Cc2ccccc2-3)cc1`, the GI50 was inactive: 15.5 µM. Next, `N#Cc1cccc(/C=N/C23CC4CC(CC(C4)C2)C3)c1`: inactive: > 100 µM; `COc1ccc2[nH]c3c(C)c4ccnc(NCCCN(C)CCCNc5ccc([N+](=O)[O-])c6[nH]c7ccccc7c(=O)c56)c4c(C)c3c2c1`: active: 0.564 µM.

As to `Cc1ccc2c(c1)C(=O)C1(C2)Cc2c(C)cccc2C1=O` (stereo unspecified), the GI50 was inactive: > 100 µM. Next, `CCN(CC)C(=O)C1=C(C)NC(C)=C(C(=O)N(CC)CC)C1`: inactive: > 100 µM; `OCCCNc1ccnc2cc(Cl)ccc12`: inactive: > 100 µM; `O=[N+]([O-])C(=C/C1CCCCC1)/C(=C\C1CCCCC1)[N+](=O)[O-]`: inactive: 16.3 µM. Take `O=S(=O)(O)c1ccc(Nc2ccnc3ccccc23)cc1`: the GI50 is inactive: > 100 µM. `c1ccc2c(c1)/C(=N\NC1=NCCN1)c1nc3ccccc3nc1-2`: the GI50 was inactive: 3.03 µM. Next, `C[C@]12CC(c3ccccc3O1)C(C(=O)NC13CC4CC(CC(C4)C1)C3)C(=O)N2` (stereo partly specified): inactive: 18.7 µM; `Cc1cc(C)c(C(=O)OC(c2ccccc2)C(c2ccccc2)N2CCOCC2)c(C)c1` (stereo unspecified): inactive: > 100 µM. Next, `C#CCCCCC#CC1CCCC1C1=CC(=O)c2ccccc21` (stereo unspecified): inactive: 13.5 µM.

With `C1=CC=C2NCCOCC/N=C3/C=CC=CC=C3NCCOCC/N=C\2C=C1`, the GI50 is inactive: 74.3 µM. Next, `CCOC(=O)c1c2ccc(/C=C/c3ccccn3)ccc-2c(C(=O)OCC)c1N`: active: 0.562 µM. Next, `CC1(O)/C(=N/O)CC2CC1C2(C)C` (stereo unspecified): inactive: > 100 µM; `O=C1/C(=C/c2ccccc2)CN(C(=O)OCc2ccccc2)C/C1=C\c1ccccc1`: inactive: > 31.6 µM; `N=C(N)NS(=O)(=O)c1ccc(Nc2c3ccccc3nc3ccc(C(=O)Nc4ccc(S(N)(=O)=O)cc4)cc23)cc1`: inactive: > 100 µM. Next, `NCCSc1cc(O)c2c(c1N)C(=O)c1ccccc1C2=O`: inactive: > 100 µM; `O=C(/C=C(\S/C=C(/c1ccccc1)N1CCn2c(C(=O)c3ccccc3)c(C(=O)c3ccccc3)c(C(=O)c3ccccc3)c21)C(=O)c1ccccc1)c1ccccc1`: inactive: > 10 µM; `Nc1nc(Cl)cc(NCC2(CO)CC(O)C2)n1` (stereo unspecified): inactive: > 100 µM. Regarding `CC(C)N1CN(C(C(=O)N[C@@H]2C(=O)N3C2SC(C)(C)C3C(=O)O)c2ccc(O)cc2)CSC1=S` (stereo partly specified), the GI50 is inactive: > 100 µM.

As to `COc1ccc(-c2c(C#N)c(O)n(C3OC(CO)C(O)C(O)C3O)c(=S)c2C#N)cc1` (stereo unspecified), the GI50 is inactive: > 100 µM. Next, `COc1ccc2c(C=O)c3n(c(=O)c2c1OC)CCc1cc2c(cc1-3)OCO2`: inactive: > 100 µM; `Cc1cnc(/C=N\NC(N)=S)c2cccc(N)c12`: active: 0.604 µM. Next, `CCOC(=O)CC(=O)NC1CC2CCC1(C)C2(C)C` (stereo unspecified): inactive: > 100 µM. Next, `COc1cc2c(OC)c(c1)CCCC1=CC(=O)C=C(CCC2)C1=O`: inactive: 44.4 µM; `N#CCCN(CCC#N)c1ccc(/C=C(/NC(=O)c2cc([N+](=O)[O-])ccc2Cl)C(=O)N=[N+]=[N-])cc1`: inactive: > 100 µM; `CCCCOP(=O)(OCCCC)C(NS(=O)(=O)c1ccccc1)(C(=O)OCC)C(F)(F)F` (stereo unspecified): inactive: 49 µM. `Nc1nccc(NCC2(CO)CC(OCc3ccccc3)C2)n1` (stereo unspecified): the GI50 was inactive: > 100 µM. Next, `CC(C)CCC[C@@H](C)[C@H]1CCC2C3CC=C4C[C@@H](Oc5c6ccccc6nc6ccccc56)CCC4C3CCC21` (stereo partly specified): inactive: > 50 µM; `Cc1ccc([N+](=O)[O-])c2c(NCC(O)CO)ccnc12` (stereo unspecified): inactive: 24.5 µM. Next, `CC(=O)c1cccc2c1CC1(C2)Cc2ccc3c(c2C1=O)CCC3` (stereo unspecified): inactive: > 100 µM; `COP(=O)(OC)C12CCOCCN1c1ccccc1C2=O` (stereo unspecified): inactive: > 100 µM. Next, `CCc1n[nH]c(=O)n1CCO`: inactive: > 100 µM; `O=c1c(Cl)c(Cl)cnn1CCc1ccncc1`: inactive: 17.3 µM; `Cc1ccc(C(=O)C2=CN=C3C(=O)N(c4ccccc4)N(C)C3(C)C2=N)cc1` (stereo unspecified): inactive: > 100 µM.

In the case of `CC1=[N+]([O-])c2ccccc2C(=O)C1=O`, the GI50 is inactive: > 100 µM. As to `O=C(CCc1nnc2s/c(=C\c3ccccc3)c(=O)n12)Nc1cc(Cl)ccc1Cl`, the GI50 is inactive: > 100 µM. Consider `CCOC(C[C@H](O[Si](C)(C)C(C)(C)C)[C@H]1COC(=S)S1)OCC`, for which the GI50 is inactive: > 100 µM.

Consider `COC(=O)[C@]12CSC[C@H]1C[C@H](c1ccccc1OC)N2`, for which the GI50 is inactive: > 100 µM. Next, `S=c1sc2c(Cl)nc(Cl)nc2n1-c1ccccc1`: inactive: 28.8 µM.

For `COC(=O)/C(C#N)=C1\CCc2ccccc21`, the GI50 was inactive: > 100 µM. Next, `Nc1cc(N2CCCC2)nc(=O)n1Cc1ccccc1`: inactive: > 100 µM; `NC(=S)N/N=C1\c2ccccc2CCC1CCC1(O)CCc2ccccc2C1=O` (stereo unspecified): inactive: 41.6 µM; `CSc1nc2c(ncn2C2OCC(O)C(O)C2O)c(=O)[nH]1` (stereo unspecified): inactive: > 100 µM. Consider `Nc1c([N+](=O)[O-])cc2c3c(cccc13)CC2`, for which the GI50 was inactive: 53.8 µM. Consider `CCC1CC2CN3CCc4c([nH]c5c(-c6c(OC)ccc7c8c([nH]c67)[C@]6(C(=O)OC)CC7CC(CC)C6N(CC8)C7)c(O)ccc45)[C@](C(=O)OC)(C2)C13` (stereo partly specified), for which the GI50 was inactive: 16.5 µM. As to `C/C=C/C(C/C=C(\C)CO[Si](C)(C)C(C)(C)C)O[Si](C)(C)C(C)(C)C` (stereo unspecified), the GI50 was inactive: > 100 µM.

Consider `C/C(=N\Nc1nc2ccccc2[nH]1)c1ccncn1`, for which the GI50 is active: 0.184 µM.

For the compound `O=[N+]([O-])c1cccc2nc3ccccc3c(NCCC[N+]3([O-])CCOCC3)c12`, the GI50 was active: 0.226 µM. Next, `O/N=C/C1c2ccccc2-c2ccccc21`: inactive: 18.1 µM; `Nc1nc2ncn(CC(O)CO)c2c(=S)[nH]1` (stereo unspecified): inactive: > 100 µM; `CNc1nnc(CNc2ccc(-c3nnc(NC)n3N)cc2)n1N`: inactive: > 100 µM. Next, `Cc1n[nH]c(=O)n1N1C(=O)CCCC1=O`: inactive: > 100 µM. Turning to `C[N+]12C=CC=C1C(N1CCCC1)c1scc(-c3ccccc3)c12` (stereo unspecified), the GI50 was inactive: > 100 µM. Next, `CCOC(=O)C1(Cc2ccccc2)Cc2cc3c(cc2C1)CCC3`: inactive: 44.8 µM. On to `COc1ccc(C(=O)/C=C/c2ccc(OCC(=N)N)cc2)cc1OC`, for which the GI50 was inactive: 2.9 µM. Next, `CCc1c(C#N)c(=O)[nH]c(=O)n1CCN1CCN(C(=O)NCCCCCCNC(=O)N2CCN(CCn3c(CC)c(C#N)c(=O)[nH]c3=O)CC2)CC1`: inactive: > 100 µM; `C=C(CCOC)CCC1CCCCC/C1=N\N(C)C` (stereo unspecified): inactive: > 100 µM. With `O=S(O)CCCCSSCCCCSSCCCCS(=O)O`, the GI50 is inactive: 47.6 µM.

Turning to `CC(=O)OCC1OC(OC2CC3C(C)(C)C(O)CC[C@]3(C)C3CCC45CC4(CCC5[C@@H](C)CC(O)C(O)C(C)(C)O)[C@]23C)C(O)C(O)C1O` (stereo partly specified), the GI50 was inactive: > 10 µM. Next, `c1cc(C2O[C@H]3CCCN3[C@@H]2c2ccncc2)ccn1` (stereo partly specified): inactive: > 100 µM.

Regarding `O=C(OCc1ccccc1)C(Cc1ccccc1)N(Cc1ccccc1)Cc1ccccc1` (stereo unspecified), the GI50 is inactive: > 100 µM. Next, `CCCCc1ccc(Nc2nc(SC)c3[nH]cnc3n2)cc1`: inactive: > 88.3 µM; `O=C(CCc1cccc(O)c1)NCCc1ccc(O)cc1`: inactive: > 100 µM. For the compound `Cn1ccc(C(=O)NCCCCCNC(=O)c2ccn(C)c(=O)c2O)c(O)c1=O`, the GI50 was inactive: > 100 µM.

Regarding `CC(=O)O[C@H]1CC2C(C3CCC(C(C)CCC(N)=O)[C@]31C)[C@H](OC(C)=O)C[C@@H]1CC3(CC[C@]21C)OOC1(CC[C@]2(C)C4C[C@H](OC(C)=O)[C@]5(C)C(C(C)CCC(N)=O)CCC5C4[C@H](OC(C)=O)C[C@@H]2C1)OO3` (stereo partly specified), the GI50 is inactive: 2 µM. Next, `CO[C@H]1C[C@H](O[C@H]2CC[C@]3(C=O)[C@H]4CC[C@]5(C)[C@@H](C6=CC(=O)OC6)CC[C@]5(O)[C@@H]4CC[C@]3(O)C2)O[C@H](C)[C@H]1O[C@@H]1O[C@H](CO[C@@H]2O[C@H](CO)[C@@H](O)[C@H](O)[C@H]2O)[C@@H](O)[C@H](O)[C@H]1O`: active: 0.0356 µM.
